“And” between values parts separate entries of the source, which are not always exact repeats. Equal values may be shown once.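 Cells were grown in 96-well plates and exposed to each compound for 48 hours at five concentrations; endpoints were interpolated linearly between bracketing concentrations, or set to the highest concentration if not reached. GI50 is the concentration that inhibits growth by half. TGI: concentration producing complete growth inhibition.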 Peptide text beside a SMILES is read from it. * marks the point of attachment. Cbz = O=C(OCc1ccccc1)*
Each molecule was assayed on NCI-H322M lung (assay: growth of human tumour cells (NCI), 48 h).

O=C(O)C12CCC(CC1=O)C2 (stereo not given) and CC(C)=NNC(=S)NC12CC3CC(CC(C3)C1)C2 cannot be ordered by TGI: over 100 µM for the first, over 100 µM for the second.

Going from C=CC(=O)N1CC[C@H](n2nc(C#Cc3cc(OC)cc(OC)c3)c3c(N)ncnc32)C1 to C=CC(=O)Nc1cccc(Oc2nc(Nc3ccc(N4CCN(C)CC4)cc3OC)ncc2Cl)c1, the TGI falls from over 100 µM to 4.92 µM.

O=C(NC(Cc1ccc(Cl)cc1)C(=O)O)c1ccc(I)cc1 (stereo not given) and CC1(C)CCC(C)(C)c2cc(NC(=O)c3ccc(C(=O)O)cc3)ccc21 cannot be ordered by TGI: over 100 µM for the first, over 100 µM for the second.

Going from c1ccc2c(CNCCCCCCCCNCc3cccc4ccccc34)cccc2c1 to COc1cc(CNc2c3ccccc3nc3ccccc23)cc(OC)c1OC, the TGI rises from 3.65 µM to 18.9 µM (5.2-fold).

First: CN(C)CC1CCC/C(=C\c2ccccc2)C1=O (stereo not given)
Second: CCOC(=O)CN(c1ccccc1)c1nc(=[N+](C)C)ss1
The TGI of the first is lower: 32.6 µM for the first, over 100 µM for the second.

Compared with NC(CCCCNCc1ccccc1)C(=O)O (stereo not given), CC(C)C[C@@H](C=O)NC(=O)[C@H](CC(C)C)NC(=O)[C@H](CC(C)C)NC(=O)OCc1ccccc1 (Cbz-Leu-Leu-Leu-aldehyde) is lower in TGI: over 100 µM for the first, 7.64 µM for the second.

First: COc1cc2nc3cc([N+](=O)[O-])ccc3c(NCCNCC(C)O)c2cc1OC (stereo not given)
Second: COc1cc(C2C(=O)C(Cl)N2Nc2nc(C)cc(=O)[nH]2)cc(OC)c1OC (stereo not given)
The TGI of the first is lower: 4.64 µM for the first, over 100 µM for the second.

Cn1c(=O)ccc2c(=O)c3ccccc3oc21 and Cn1c2cn[nH]c(=O)c2c2ccc3ccccc3c21 cannot be ordered by TGI: over 100 µM for the first, over 100 µM for the second.

Compared with CCCCCCCCCCCCC(Br)C(C)=O (stereo not given), CCCCCCCCCCCCCCCCN(CC)CC is lower in TGI: over 100 µM for the first, 25.2 µM for the second.

First: N#Cc1c(N/N=C\c2ccc(Cl)cc2)nc(N)nc1N1CCOCC1
Second: N#Cc1c(-c2ccc(Cl)cc2)c2c([nH]c1=O)-c1cc([N+](=O)[O-])ccc1CCC2
The TGI of the first is higher: over 100 µM for the first, 48.7 µM for the second.

COP(=O)(OC)[C@H](O)[C@H]1C[C@@H]1c1ccccc1 and CN(C)C(=NC#N)N(Cc1ccccc1)Cc1ccccc1 cannot be ordered by TGI: over 100 µM for the first, over 100 µM for the second.

COC(=O)c1ccc2c(c1)sc1nc(-c3ccc(OC)cc3)cn12 and Cn1cc(-c2nnc(-c3ccc(Cl)cc3)[nH]c2=O)c2ccccc21 cannot be ordered by TGI: over 100 µM for the first, over 78.6 µM for the second.

First: Cc1ccc2c3c1[C@@H]1O[C@@H]1c1cccc(c1-3)[C@@H]1O[C@H]21
Second: CC1=CC(=O)N(n2c(-c3ccccc3)n[nH]c2=O)C1=O
The TGI of the first is lower: 29.8 µM for the first, over 100 µM for the second.

First: COc1ccc(N=Nc2c(N)nn(C)c2N)cc1
Second: NC(N)=Nc1ccc(/C=C2\C=Cc3ccccc32)cc1
The TGI of the first is higher: over 100 µM for the first, 17.5 µM for the second.

First: COc1cc(O)c2c(c1)C(=O)C1=C(C2=O)C(O)C[C@@](C)(O)C1 (stereo not given in full)
Second: O=C1/C(=C/c2ccc(O)c(O)c2)CC/C1=C\c1ccc(O)c(O)c1
The TGI of the first is lower: 5.58 µM for the first, over 81.4 µM for the second.

O=C(O)c1c2c(cc3c(=O)cc(-c4ccccc4)oc13)CCCC2 and CCOc1cccc(-c2cc(=O)c3cc4c(cc3[nH]2)OCO4)c1 cannot be ordered by TGI: over 100 µM for the first, over 100 µM for the second.

O=C1CC(CC(OCc2ccccc2)C(OCc2ccccc2)C(COCc2ccccc2)OCc2ccccc2)CC(=O)N1 (stereo not given) and O=c1[nH]c(=O)n(CCOc2ccc(Cl)cc2)cc1Nc1ccccc1 cannot be ordered by TGI: over 100 µM for the first, over 100 µM for the second.

C/C(=N/O)c1sc(-c2nc(C)c(/C(C)=N\O)s2)nc1C and COC(=O)CNc1nc(N(C)O)nc(N(C)O)n1 cannot be ordered by TGI: over 100 µM for the first, over 100 µM for the second.

First: Cc1ccc(C(=O)NCCN(C)C)c2nc3ccccc3cc12
Second: CCN(CCO)CCNc1ccc(C)c2sc3ccccc3c(=O)c12
The TGI of the first is higher: over 100 µM for the first, 13.8 µM for the second.

First: Cc1ccsc1-c1ccc2c(c1)COC2(CCCN(C)C)c1ccc(F)cc1 (stereo not given)
Second: O=C1NC(=NCCc2ccccn2)S/C1=C\c1ccc2ncccc2c1
The TGI of the first is lower: 13.8 µM for the first, over 25 µM for the second.

C/C=C\C(CC(=O)OC)CC(=O)N(CCC1CN(S(=O)(=O)C(F)(F)F)c2ccccc21)Cc1ccc(OC)cc1OC (stereo not given) and CC(=O)Oc1ccc2cc(-c3ccc(OC(C)=O)c(OC(C)=O)c3)c(=O)oc2c1 cannot be ordered by TGI: over 100 µM for the first, over 100 µM for the second.

Compared with CCN(CC)Cc1cc(Nc2ccnc3ccc4nn(C)nc4c23)ccc1O, CCCN(CCC)c1ccc(C=O)c(C)c1 is higher in TGI: 48.2 µM for the first, over 100 µM for the second.

O=[N+]([O-])c1ccc2c(c1)C(c1ccccc1Cl)=Nc1c(n[nH]c1-c1cccnc1)N2 and CCCCC1(O)CC2CC1C(C)C2(C)C (stereo not given) cannot be ordered by TGI: over 25 µM for the first, over 100 µM for the second.

Compared with CCCCCCCCCCCCCCCCCC(=O)OCC1OC(OC)C(NC(=O)N(CCCl)N=O)C(O)C1O (stereo not given), CC[PH+](CC)CC.CC[PH+](CC)CC.[Au] is lower in TGI: over 100 µM for the first, 32.4 µM for the second.

Going from C=CC(=O)N1CC[C@H](n2nc(C#Cc3cc(OC)cc(OC)c3)c3c(N)ncnc32)C1 to C=CC(=O)Nc1cccc(Oc2nc(Nc3ccc(N4CCN(C)CC4)cc3OC)ncc2Cl)c1, the GI50 falls from 7.28 µM to 0.792 µM (9.2-fold).

Going from COc1cc2nc3cc([N+](=O)[O-])ccc3c(NCCNCC(C)O)c2cc1OC (stereo not given) to O=[N+]([O-])c1ccc2c(c1)C(c1ccccc1Cl)=Nc1c(n[nH]c1-c1cccnc1)N2, the GI50 rises from 0.908 µM to over 25 µM.

Compared with N#Cc1c(N/N=C\c2ccc(Cl)cc2)nc(N)nc1N1CCOCC1, O=C1NC(=NCCc2ccccn2)S/C1=C\c1ccc2ncccc2c1 is 5.3-fold lower in GI50: 39.8 µM for the first, 7.51 µM for the second.

CCCCCCCCCCCCCCCCN(CC)CC and CC[PH+](CC)CC.CC[PH+](CC)CC.[Au] are within 1.5-fold of each other in GI50: 12.6 µM for the first, 18.3 µM for the second.

Compared with COC(=O)CNc1nc(N(C)O)nc(N(C)O)n1, CCCN(CCC)c1ccc(C=O)c(C)c1 is higher in GI50: 1.31 µM for the first, over 100 µM for the second.

First: Cc1ccsc1-c1ccc2c(c1)COC2(CCCN(C)C)c1ccc(F)cc1 (stereo not given)
Second: NC(N)=Nc1ccc(/C=C2\C=Cc3ccccc32)cc1
The GI50 of the first is 1.7-fold lower: 2.65 µM for the first, 4.47 µM for the second.

First: CC(C)C[C@@H](C=O)NC(=O)[C@H](CC(C)C)NC(=O)[C@H](CC(C)C)NC(=O)OCc1ccccc1 (Cbz-Leu-Leu-Leu-aldehyde)
Second: C[C@H]1CCC/C=C/[C@@H]2C[C@H](O)C[C@H]2[C@H](O)/C=C/C(=O)O1
The GI50 of the first is 17-fold higher: 1.27 µM for the first, 0.0757 µM for the second.

CC1Cc2ccccc2N1C(=O)Cc1nc(N2CCOCC2)cc(=O)[nH]1 (stereo not given) was tested, and the GI50 was 8.19 µM and 14 µM.
For O=C1CC(CC(OCc2ccccc2)C(OCc2ccccc2)C(COCc2ccccc2)OCc2ccccc2)CC(=O)N1 (stereo not given), the GI50 was > 100 µM and 27.3 µM.

For CC1Cc2ccccc2N1C(=O)Cc1nc(N2CCOCC2)cc(=O)[nH]1 (stereo not given), the TGI was 64.7 µM and > 100 µM.

Source: PubChem BioAssay (NCI)
